# Measured values taken from paper PMC6212790.
# Some of the results follow. At the low end of the ranking the order means little.
# Molecular target: T1, GST-Rok (full length) (UniProt O34857)
# T1 sequence: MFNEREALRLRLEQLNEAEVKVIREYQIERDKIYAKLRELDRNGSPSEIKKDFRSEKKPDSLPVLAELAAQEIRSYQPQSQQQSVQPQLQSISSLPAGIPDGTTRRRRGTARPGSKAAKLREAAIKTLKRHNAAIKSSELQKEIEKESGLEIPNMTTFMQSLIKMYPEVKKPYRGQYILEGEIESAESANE
# Experiment: protein binding microarray;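 further: rank score from −0.5 (least bound) to 0.5 (best bound)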
# Settings: Rok is a gene silencer of Bacillus subtilis; high values mean tight binding; most listed sequences are background and not binding sites; double strand, one strand shown
row,Sequence,binding signal [E-score]
1,CCCCTACC,-0.301
2,CCTCTTTC,-0.133
3,ATAAAAAA,0.206
4,CACAAATC,0.0545
5,CTGACCCC,-0.4
6,GAAATCCC,-0.217
7,ACTCCCGC,-0.225
8,TAAGGCAA,0.0401
9,CTATAGAG,0.0607
10,CCGGACTA,0.000572
11,CATGTTCC,-0.0114
12,CGACCCCA,-0.369
13,CCTCCACG,-0.303
14,CACGAGCC,-0.204
15,ATGACGAC,-0.0768
16,GAGTTTCC,-0.177
17,AGGCCACA,-0.268
18,AACTATCC,0.254
19,AACGATTG,0.0129
20,GCGGATGA,-0.113
21,GCGACCGA,-0.225
22,GTCTAAGA,-0.158

row,Sequence,binding signal [E-score]
1,ACTGGAAG,0.0356
2,GAACCATA,0.043
3,AGAAGAAT,0.149
4,ATGTTGAA,0.131
5,AGTGTGAC,-0.174
6,CCGTGGCA,-0.285
7,AGTGTGAA,0.178
8,GCTGTAAC,0.0827
9,ACTAGCAG,-0.00857
10,AGTGACCC,-0.225
11,CAGTGAAC,-0.00602
12,CTTTCAGC,0.0557
13,TGCATCCA,0.00981
14,AATCGCTG,0.00392
15,GGGTTGCA,-0.161
16,CTTATGTA,0.111
17,CTTGTTCC,-0.0961
18,AAGGAAGA,-0.0679
19,ATCGATTC,0.09
20,CTAGATCC,0.261
21,ATTGGAAA,-0.112
22,CGTTGCTC,-0.157

row,Sequence,binding signal [E-score]
1,GACACGTA,0.0655
2,CGTAAAGC,-0.0697
3,ATAGGAGG,-0.167
4,GTGGATGA,-0.132
5,CCAACACA,0.0907
6,GGGATTCA,-0.21
7,GGCCGCCA,-0.332
8,AGTCTATG,0.0053
9,AACTAGCA,0.27
10,TATAAAAA,0.214
11,GGGGTTAA,-0.0141
12,ATACCGAT,0.342
13,AGCGGGAT,-0.123
14,GCGAGCGC,-0.109
15,GCTTAGCC,-0.181
16,AAATGAGC,-0.0594
17,GGCCTGGA,-0.277
18,TCGTGGAA,-0.00322
19,CGGGCTAC,-0.0679
20,GAAAGCTC,-0.0929
21,CTGTCGGC,-0.173
22,AGAGGACT,-0.176

row,Sequence,binding signal [E-score]
1,GCTAGTCC,0.0874
2,AAAACATT,0.0682
3,AAATTTAA,0.162
4,AAGGGTTA,-0.101
5,TAAGGATA,0.0747
6,AGCGTGTA,0.184
7,GCTCGCGA,-0.155
8,GATTCAAA,-0.0146
9,AGCACGGC,-0.287
10,CTGCACGA,-0.0737
11,GTTTTGTA,0.188
12,TACTTTCA,0.329
13,AGGTTGAG,0.0244
14,AGCGGCTG,-0.194
15,CCTCTGCC,-0.184
16,AGTGTCGC,-0.013
17,GATAAGAA,-0.0724
18,AATATAAA,0.266
19,CAAACACA,0.0719
20,TAAGCTCA,-0.117
